Experimental data from paper PMC4336329 (PLoS ONE, 2015).
In all, about 310,000 compounds went through this assay and about 2,200 (0.71%) showed an effect of 50% or more. The effect is printed as a negative number. The list shows a part of the results.

target: human ether-à-go-go-related gene (hERG) potassium channel (human, UniProt Q12809); assay: primary screen, population patch clamp on CHO cells stably expressing hERG
Sequence (Q12809 whole entry, looked up): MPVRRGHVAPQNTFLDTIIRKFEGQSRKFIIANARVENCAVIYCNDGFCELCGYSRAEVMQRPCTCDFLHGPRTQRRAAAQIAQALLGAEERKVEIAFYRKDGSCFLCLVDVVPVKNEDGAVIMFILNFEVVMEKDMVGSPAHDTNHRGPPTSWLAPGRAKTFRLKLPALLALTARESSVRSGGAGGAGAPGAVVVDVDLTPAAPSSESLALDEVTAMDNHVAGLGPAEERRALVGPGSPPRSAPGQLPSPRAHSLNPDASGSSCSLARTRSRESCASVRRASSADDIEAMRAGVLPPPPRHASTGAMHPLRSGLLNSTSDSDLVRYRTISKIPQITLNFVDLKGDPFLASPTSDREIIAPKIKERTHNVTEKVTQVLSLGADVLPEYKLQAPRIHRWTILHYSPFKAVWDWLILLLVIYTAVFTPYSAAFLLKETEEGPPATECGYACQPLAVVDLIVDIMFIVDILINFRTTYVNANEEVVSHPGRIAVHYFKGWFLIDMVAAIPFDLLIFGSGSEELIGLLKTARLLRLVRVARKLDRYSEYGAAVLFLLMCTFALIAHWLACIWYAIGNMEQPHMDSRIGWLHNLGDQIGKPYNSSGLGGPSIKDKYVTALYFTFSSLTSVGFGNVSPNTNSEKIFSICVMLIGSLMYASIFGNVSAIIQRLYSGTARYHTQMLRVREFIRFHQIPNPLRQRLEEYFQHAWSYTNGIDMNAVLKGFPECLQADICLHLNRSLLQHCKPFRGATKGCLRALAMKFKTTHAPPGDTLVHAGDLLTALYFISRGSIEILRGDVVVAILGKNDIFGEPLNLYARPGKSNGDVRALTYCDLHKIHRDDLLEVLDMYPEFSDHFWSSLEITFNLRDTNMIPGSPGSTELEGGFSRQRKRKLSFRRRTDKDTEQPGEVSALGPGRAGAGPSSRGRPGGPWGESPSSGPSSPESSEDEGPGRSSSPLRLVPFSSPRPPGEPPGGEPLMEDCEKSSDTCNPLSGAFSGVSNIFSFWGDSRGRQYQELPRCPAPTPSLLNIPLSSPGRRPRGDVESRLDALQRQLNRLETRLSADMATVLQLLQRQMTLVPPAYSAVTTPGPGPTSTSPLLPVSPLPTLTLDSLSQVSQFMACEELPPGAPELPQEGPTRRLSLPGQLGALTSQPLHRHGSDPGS

Row | Compound | hERG current change (%, negative = inhibition) at 1uM [%]
1 | N#Cc1cccc(CN2CCC(=O)N([C@H](CO)c3ccccc3)CC2)c1 | 4.05
2 | O=C(N/N=C/c1cn(-c2ccccc2)nc1-c1cc2ccccc2o1)c1ccccc1Br | 0.297
3 | Cc1ccc(S(=O)(=O)NCC(=O)OCc2cc(=O)oc3cc(C)ccc23)cc1 | 4.36
4 | Cc1ccc(C(=O)NCCc2ccccc2)cc1S(=O)(=O)N1CCOCC1 | 1.29
5 | Cc1oc2c(C)c3oc(=O)c(CCC(=O)N4CCC(C(=O)NCCC(=O)O)(c5ccccc5)CC4)c(C)c3cc2c1C | 9.7
6 | Cc1ccc(OCC(O)CN2CCN(c3ccccc3)CC2)cc1 (centres unmarked) | -0.16
7 | COc1cccc2cc(-c3nc4ccccc4[nH]3)c(=O)oc12 | 16.1
8 | O=C(c1[nH]ncc1-c1cccc(Br)c1)C1CO1 (centres unmarked) | 13.7
9 | CC1CCCCC1NC(=O)CO/N=C/c1ccc(OC(F)F)cc1 (centres unmarked) | -10.8
10 | O=C(NCc1ccccc1Cl)C1CCCN(S(=O)(=O)c2cnc[nH]2)C1 (centres unmarked) | 14.3
11 | CN(C)S(=O)(=O)c1ccc(NC(=O)CCNC(=O)c2ccc([N+](=O)[O-])cc2)cc1 | 10
12 | COc1ccc(CNC(=O)C2CCN(S(=O)(=O)c3c(C)noc3/C=C/N(C)C)CC2)cc1 | -2.45
13 | Cc1cccc(OCCn2nc(C(=O)O)c3ccccc3c2=O)c1 | -2.97
14 | CN(CC(=O)Nc1ccc(Cl)cc1)C(=O)CNC(=O)c1cccs1 | 11.5
15 | COC(C(=O)NNC(=O)CCc1ccccc1)c1ccccc1 (centres unmarked) | 9.15
16 | CSc1nc2ccccc2c(=O)n1C1CCOC(C)(C)C1 (centres unmarked) | 6.17
17 | Cc1nc2ccc(S(=O)(=O)NCC(=O)N(C)Cc3ccco3)cc2s1 | 2.54
18 | CC(=O)N(c1cccc(C(F)(F)F)c1)c1nc(/C=C/C(=O)O)cs1 | 5.3
19 | COc1ccc(C(=O)NCCc2cccc(Cl)c2)cc1OC1CCN(C(C)=O)CC1 | -6.31
20 | O=C(O)c1ccc2c(c1)C(=O)N(C(Cc1ccccc1)C(=O)O)C2=O (centres unmarked) | 10.1
21 | Cc1ccc([N+](=O)[O-])c2c1C(N1CC(C)OC(C)C1)C(C)(C)O2 (centres unmarked) | 17.1
22 | [NH-]S(=O)(=O)c1ccccc1.[Na+] | 8.56
23 | COc1ccc(OCC(=O)Nc2cccc(OC)c2)cc1 | 19.4

Row | Compound | hERG current change (%, negative = inhibition) at 1uM [%]
24 | COc1ccc(S(=O)(=O)NCCOc2ccc(Cl)cc2)cc1 | 2.66
25 | Cc1cccc(NC(=O)C2CC(=O)N(c3ccc4c(c3)OCCO4)C2)n1 (centres unmarked) | 16.7
26 | O=C(NCCCN1CCCC1)[C@H](CSCc1ccccc1)N1Cc2ccccc2C1=O | -29.8
27 | O=C(NCc1ccccn1)C(=O)NCC1OCCCN1S(=O)(=O)c1ccc(F)cc1 (centres unmarked) | 13.5
28 | CC(=O)N1C(=O)N(C(C)=O)C2C1N(C)C(=O)N2C(C)=O (centres unmarked) | 12.5
29 | CC(=O)N1CCN(c2nc(-c3ccco3)c3c(c2C#N)CC(C)(C)SC3)CC1 | 7.62
30 | COc1cccc(C(=O)Nc2cccc(NC(C)=O)c2)c1 | 3.08
31 | C=Cc1ccc(Cn2c(=O)n(C)c(=O)c3sccc32)cc1 | 12.4
32 | C=CCn1c(SCc2ccc(C#N)cc2)nnc1-c1ccccc1 | -35.1
33 | COc1cccc(C(=O)Nc2ccc(NC(C)=O)cc2)c1 | 7.57
34 | COc1cc(OC)cc(C(=O)N/N=C(\C)CC(=O)Nc2ccccn2)c1 | 13.6
35 | Cn1cccc1-c1nc2ccc(NC(=O)c3ccccc3)cc2[nH]1 | -12.8
36 | COc1ccc(NC(=O)C(NC(=O)c2ccc(=O)[nH]c2)c2ccccc2)cc1 (centres unmarked) | 13.1
37 | Cc1ccc(/C=C/C(O)=C2/C(=O)N(C)C3(C)CC2c2ccccc2O3)cc1 (centres unmarked) | 10.3
38 | COc1ccccc1NC(=O)C(=O)N/N=C/c1cccs1 | 8.27
39 | COc1ccc(NC(=O)CCC2CCCC2)cc1OC | 5.85
40 | CN(C)/C(=N\S(=O)(=O)c1ccc(F)cc1)c1ccccc1 | 11.8
41 | O=C(NC1C(=O)NNC1c1ccccc1)c1ccccc1 (centres unmarked) | -5.93
42 | COC(=O)C1=C(c2ccc(S(C)(=O)=O)cc2)C[C@@H]2CC[C@H]1N2C(=O)N1CCCCC1 | 9.24
43 | Cn1c(CCN2CCOCC2)nc2cc(NC(=O)c3cccs3)ccc21 | 3.64
44 | COc1ccccc1NC(=O)Cn1c([N+](=O)[O-])cnc1C | 10.2
45 | O=S(=O)(c1ccccc1)N1N=C(c2ccc(O)cc2)CC1c1ccco1 (centres unmarked) | 9.61
46 | COc1ccccc1C1C(C(N)=O)=C(C)Nc2nc(CCCO)nn21 (centres unmarked) | 16.2

Row | Compound | hERG current change (%, negative = inhibition) at 1uM [%]
47 | Cc1cc(C)c(C(=O)Nn2c(C)nc3ccccc3c2=O)cc1C | 4.51
48 | COCCNC(=O)NC(=O)COC(=O)C12CC3CC(CC(NC(C)=O)(C3)C1)C2 | 12.1
49 | O=C(O)CSCC(=O)Nc1ccccc1 | -1.4
50 | COC(=O)c1cc(OC)c(OC)cc1NC(=S)Nc1cc(Cl)ccc1OC | 9.55
51 | Cc1nnc(NC(=O)C23CC4CC(CC(C4)C2)C3)s1 | 15.3
52 | Cc1cccc(N2CCN(C(=O)c3ccc4c(c3)OCCO4)CC2C)c1 (centres unmarked) | 3.1
53 | COc1ccc(CNc2nc(-c3cccnc3)nn2C(C)=O)cc1 | 11.7
54 | COC(=O)c1cc(=O)n(Cc2ccc3c(c2)OCO3)c(=Nc2ccc(F)c(Cl)c2)s1 | 15.5
55 | O=c1cc2ncc(-n3cc([N+](=O)[O-])cn3)cn2[nH]1 | 11.8
56 | S=C1NC2=C(CCCC2)C2(CCCCC2)N1 | 11.9
57 | O=C(Nc1nnc(-c2ccccc2Cl)s1)C1CCN(S(=O)(=O)c2ccc(Cl)cc2)CC1 | 23.4
58 | C=CCn1c(SCC(=O)Nc2ccc3c(c2)OCO3)nnc1-c1ccccc1 | 2.67
59 | Cc1ccc(S(=O)(=O)Oc2ccccc2/C=C2/SC(=O)NC2=O)cc1 | 15.9
60 | CCOC(=O)c1cnc2[nH]c3ccccc3n2c1=O | 22
61 | Cc1ccc(NS(=O)(=O)c2cc(NC(=O)c3cc(=O)[nH]c(=O)[nH]3)ccc2Cl)c(C)c1 | 13.8
62 | COc1ccc(-c2nn(-c3ccccc3)cc2C2CC(c3cccs3)=NN2C(=O)CCCC(=O)O)cc1 (centres unmarked) | 21.2
63 | Cc1c(NC(=O)OCCSc2nc(N(C)C)nc(N(C)C)n2)sc(=S)n1C | 12.8
64 | CCc1cccc(CC)c1NC(=S)Nc1ccccc1 | 13.8
65 | COc1ccc(/C=C2\CCOC2=O)cc1 | 12.3
66 | CCN(CC)CCCNc1nc(SC)nc2sc3c(c12)CCN(C)C3 | 5.51
67 | O=C1c2ccccc2C(=O)N1CCCc1nc2ccccc2c(=O)n1-c1cccnc1 | -24.3
68 | CC1=NN(c2ccc(C(=O)O)cc2)C(=O)/C1=C\c1ccc(OC(=O)c2cccs2)cc1 | 13.2
69 | NC(=O)CC(NC(=O)Cc1ccc(Br)cc1)c1ccc(NCc2ccccn2)c([N+](=O)[O-])c1 (centres unmarked) | 7.46

Row | Compound | hERG current change (%, negative = inhibition) at 1uM [%]
70 | O=c1c2ccccc2nc2c3ccccc3c(NCCN3CCOCC3)nn12 | -46
71 | COc1ccccc1C(=O)N1CCC(C(=O)c2ccc(F)cc2)CC1 | 3.81
72 | O=C(Nc1cccc(C(F)(F)F)c1)c1cccnn1 | 3.2
73 | Cc1ccc(NC(=O)c2ccc(NCCCN3CCC(C)CC3)c([N+](=O)[O-])c2)cc1F.Cl | 2.4
74 | CC(=O)c1ccc(-n2c(CCC(=O)O)ccc2-c2ccc(Cl)cc2)cc1 | 1.38
75 | Cc1cc(C)cc(NC(=S)N(CCN(C)C)C(C)c2cccnc2)c1 (centres unmarked) | 2.76
76 | C=CCn1c(N)c(C(=O)Nc2cccc(C)c2)c2nc3ccccc3nc21 | 22.4
77 | CC(C)CCNC(=O)CCS(=O)(=O)c1cccc2nonc12 | 15.9
78 | Br.COc1ncnc2c1N=C1CC(C)(C)CC(N)=C1S2 | 9.87
79 | Cc1ccc(S(=O)(=O)NC(CC(=O)NC2CCCC2)c2ccco2)cc1 (centres unmarked) | 4.44
80 | COc1ccc(NC2=CC(c3cccc(OC)c3)N(c3ccc(OC)cc3)C2=O)cc1 (centres unmarked) | 11.5
81 | Cc1ccc(NS(=O)(=O)c2ccccc2Cl)c2c1CC(C)(C)O2 | 6.77
82 | C/C(=N\NC(=O)c1ccc2c(c1)OCO2)c1ccc(O)cc1 | 14.3
83 | CSCCC(NS(=O)(=O)c1ccc(Cl)cc1)C(=O)OCC(=O)NC1CC1 (centres unmarked) | 3.86
84 | CCOc1ccccc1CN1CCC(O)CC1 | 12.7
85 | O=C(CC1SC(=NCc2ccccc2)NC1=O)Nc1ccccc1 (centres unmarked) | 8.03
86 | Cc1csc(NC(=O)CNC(=O)OCc2ccccc2)n1 | 0.305
87 | O=[N+]([O-])c1ccc2c(c1)C(c1ccccc1)=NCCN2 | -24.9
88 | COc1ccccc1S(=O)(=O)Nc1ccc(S(=O)(=O)Nc2nccs2)cc1 | 8.3
89 | Cc1ccc2c(c1)-c1ncc(C(=O)c3cc(Br)ccc3O)cc1CO2 | 12.6
